{"source": "PubChem BioAssay AID1345082", "about": "(National Center for Advancing Translational Sciences (NCATS), 2018)", "note": "About 4,000 (4.3%) of roughly 94,000 compounds were called active. The inconclusive results got no clear call from the source; some entries with a clear call stand among them for comparison. Calls come from the whole dose curve; as a rule, active = well fitted inhibition curve with a large enough effect; inconclusive = small, poorly fitted or top-dose-only effect; inactive = no such curve, though single readings can be large or run the other way. Potencies of inconclusive entries are doubtful fits and often do not repeat."}
{"assay": "Cytotoxic Profiling in NIH 3T3 Cell Line of Diverse Libraries Using Quantitative High-Throughput Screening; note: nearly all actives have a fitted effect of over 55% in size; note: potency is the fitted concentration of half-maximal effect; tags give direction and shape of the fitted curve", "settings": "NIH 3T3 viability, CellTiter-Glo ATP luminescence, 48-72 h; series mostly up to 96.7 µM", "outline": "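Cytotoxicity was measured by CellTiter-Glo ATP luminescence after 48 or 72 h compound exposure at 37 °C. Mouse NIH 3T3 fibroblasts were seeded at 400 cells/well and dosed by 23 nL pin transfer.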"}
{"compound": "CCC(=O)Nc1ccc(C2(C(=O)N3CCCC(C)C3)CCCCC2)cc1", "note": "(stereo unspecified)", "Potency": "inactive"}
{"compound": "CCOc1cc(=O)n2c(c1C(=O)Nc1cccc(C(=O)OC)c1)CCCC2", "Potency": "inconclusive: 70.8 µM [inhibitor, single point]"}
{"compound": "Cc1ccc(NC(=O)CC2CCCN(c3cnn(CC4CC4)c(=O)c3)C2)cc1C", "note": "(stereo unspecified)", "Potency": "active: 39.8 µM"}
{"compound": "COc1ccc(-c2c(C(=O)NCC3CCCCC3)nc3sccn23)cc1", "Potency": "inconclusive: 50.1 µM [inhibitor, partial curve]"}
{"compound": "O=C(NC[C@H]1OC[C@@H](NC2CCCCC2)[C@@H]1O)C1CCCC1", "Potency": "inactive"}
{"compound": "COc1ccc(OC)c(CNC(=O)c2ccc3c(c2)N(C)C2CCCCN2C3=O)c1", "note": "(stereo unspecified)", "Potency": "inactive"}
{"compound": "Cc1ccc(C(=O)N2CCC3(CC2)CC(OCC2CC2)CCO3)cn1", "note": "(stereo unspecified)", "Potency": "inactive"}
{"compound": "Cc1ccc(C)c(S(=O)(=O)N2CCCC(Cn3c(C)nc4cccnc43)C2)c1", "note": "(stereo unspecified)", "Potency": "active: 25.1 µM"}
{"compound": "Cc1cnc(CN2CC3(CCCN(C(=O)c4cscn4)C3)CCC2=O)cn1", "note": "(stereo unspecified)", "Potency": "inactive"}
{"compound": "O=C(NCC12CCC=C1N(CC1CC1)C(=O)CC2)Nc1cccc(F)c1", "note": "(stereo unspecified)", "Potency": "inactive"}
{"compound": "COc1cccc(-c2nc(N3CCOCC3)cc3c2CN(CC2CC2)C3=O)c1OC", "Potency": "inconclusive: 126 µM [inhibitor, partial curve, poor fit]"}
{"compound": "CCCn1ccc2sc(C)c(C(=O)NCc3ccccc3OCC)c2c1=O", "Potency": "inactive"}
{"compound": "C[C@]1(CO)C2CC[C@@H](O)[C@@H](CC(=O)N3CC[C@@H](O)C3)[C@]2(C)CC[C@H]1OC(=O)Nc1ccc(Cl)c(Cl)c1", "note": "(stereo partly specified)", "Potency": "inconclusive: 89.1 µM [inhibitor, single point]"}
{"compound": "O=C(Nc1ccc(Cl)cc1)NC1CCN(C(=O)c2ccc(-c3cncnc3)cc2)CC1", "Potency": "inconclusive: 35.5 µM [inhibitor, partial curve, poor fit]"}
{"compound": "C[S+](=O)([O-])N1CC2(CCCN2CC2CCCCC2)Cc2ccccc21", "note": "(stereo unspecified)", "Potency": "inconclusive: 70.8 µM [inhibitor, single point]"}
{"compound": "O=C(NCc1ccc(F)cc1)c1cnc2n1CCN(CCc1ccccc1)CC2", "Potency": "inconclusive: 4.47 µM [inhibitor, full curve, poor fit]"}
{"compound": "Cn1c2c(c3cc(F)ccc31)CN(C(=O)Nc1ccc(F)c(Cl)c1)CC2", "Potency": "active: 12.6 µM"}
{"compound": "Cn1ccnc1C(=O)N1CCC(Oc2cccc(F)c2)C1", "note": "(stereo unspecified)", "Potency": "inactive"}
{"compound": "O=C(c1cc(F)ccc1F)N1CCC(Cc2nc(-c3cnccn3)no2)CC1", "Potency": "inactive"}
{"compound": "CCCN(C)C(=O)c1csc(N2CCN(c3cccc(Cl)c3)CC2)n1", "Potency": "inconclusive: 35.5 µM [inhibitor, partial curve]"}
{"compound": "O=C(Cc1c[nH]c2ncc(-c3ccsc3)cc12)N1CCOCC1", "Potency": "inconclusive: 89.1 µM [inhibitor, partial curve, poor fit]"}
{"compound": "Cc1noc([C@@H]2C[C@H](NS(=O)(=O)c3cccc4cccnc34)CN2C)n1", "Potency": "inactive"}
{"compound": "COc1cccc(CNC(=O)CNC(=O)c2cccc(-c3ccc(C(F)(F)F)cc3)c2)c1", "Potency": "inconclusive: 35.5 µM [inhibitor, full curve]"}
{"compound": "CN(Cc1ccccc1)Cc1cc(C[C@H]2CNCC[C@H]2CC(=O)NCc2cccs2)no1", "Potency": "inactive"}
{"compound": "Cc1ccccc1-c1nccc2c(=O)cc(C3=CCOCC3)oc12", "Potency": "inconclusive: 10 µM [inhibitor, full curve, poor fit]"}
{"compound": "O=C(c1ccncc1)N1CCC2(CC1)CC(N1CCCC1)CCO2", "note": "(stereo unspecified)", "Potency": "inactive"}
{"compound": "N#Cc1ccc(C(=O)N2CCCN(CCc3ccccc3)c3ccccc32)cc1", "Potency": "inconclusive: 44.7 µM [inhibitor, partial curve, poor fit]"}
{"compound": "Cn1cc(-c2ccncc2)cc1C(=O)NC1CCN(Cc2ccccc2)CC1", "Potency": "inactive"}
{"compound": "CO[C@@]1(C)C[C@@H](O)C12CCN(C(=O)C1(c3ccccc3F)CC1)CC2", "Potency": "inactive"}
{"compound": "O=C(C1CC1)N1CCCC1c1noc(COc2ccc(F)cc2)n1", "note": "(stereo unspecified)", "Potency": "inactive"}
{"compound": "CCN1CCN(c2ccc(-c3nc(CCCc4ccccc4)no3)cn2)CC1", "Potency": "inconclusive: 50.1 µM [inhibitor, partial curve, poor fit]"}
{"compound": "Cc1nn(-c2ccccc2)c2c1C(C1CC1)N(C1CN(C(=O)c3ccc(F)cc3)C1)C2=O", "note": "(stereo unspecified)", "Potency": "inconclusive: 28.2 µM [inhibitor, full curve]"}
{"compound": "CC1CCC2(CC1)OCC(C(=O)NCc1ccccc1)N2C(=O)c1ccc(Cl)c(Cl)c1", "note": "(stereo unspecified)", "Potency": "active: 20 µM"}
{"compound": "O=C(NCc1ccccc1F)C1CCCN(c2ccnc3ccnn23)C1", "note": "(stereo unspecified)", "Potency": "inconclusive: 44.7 µM [inhibitor, partial curve, poor fit]"}
{"compound": "CN(CC[C@H]1CN(C(=O)c2cccs2)CC[C@H]1CC(=O)O)c1ccccc1", "Potency": "inactive"}
{"compound": "C[C@H]1[C@@H]2[C@@H](O)C([C@H](C)C(=O)NCc3ccc(F)cc3)CC[C@@]2(C)CC[C@@H]1NC(=O)c1cnccn1", "note": "(stereo partly specified)", "Potency": "inactive"}
{"compound": "Cc1cc(F)ccc1-c1[nH]nc2ncc(-c3c(C)noc3C)nc12", "Potency": "inconclusive: 35.5 µM [inhibitor, full curve]"}
{"compound": "CNC(=O)C1CCN(c2nccc(Nc3ccc(C)cc3)n2)CC1", "Potency": "inconclusive: 44.7 µM [inhibitor, partial curve, poor fit]"}
{"compound": "COc1ccc(-c2ccnc(N[C@H]3CO[C@H]4[C@@H]3OC[C@@H]4NC(=O)Nc3ccc(C(C)=O)cc3)n2)cc1", "Potency": "inconclusive: 89.1 µM [inhibitor, single point]"}
{"compound": "COc1ccc(-c2cc(N3CCC(NC(=O)c4ccc(C)cc4)C3)n[nH]2)cc1", "note": "(stereo unspecified)", "Potency": "inconclusive: 70.8 µM [inhibitor, single point]"}
{"compound": "CCOc1ccccc1CN1CCC2(CCN(C(=O)C(C)(C)C)CC2)Oc2ccccc21", "Potency": "active: 31.6 µM"}
{"compound": "Cc1ccc(C)c2c(=O)cc(CNC(CCn3cncn3)c3ccccc3)[nH]c12", "note": "(stereo unspecified)", "Potency": "inconclusive: 56.2 µM [inhibitor, partial curve, poor fit]"}
{"compound": "CCC1=C(C(=O)OC)C(c2ccccc2F)N2C(CC(=O)NCC3CCCO3)=CSC2=N1", "note": "(stereo unspecified)", "Potency": "inconclusive: 70.8 µM [inhibitor, single point]"}
{"compound": "COc1ccccc1-c1ccc(CN2CCCCC2C(=O)N2CCOCC2)cc1", "note": "(stereo unspecified)", "Potency": "inactive"}
{"compound": "O=C(NCc1ccc(C(F)(F)F)cc1)C1CCCN1C(=O)c1cccc(-c2ccccn2)c1", "note": "(stereo unspecified)", "Potency": "inactive"}
{"compound": "COc1cccc(-c2ccc3c(n2)CN(CC(=O)N2CCCC2)C(=O)CO3)c1", "Potency": "inconclusive: 112 µM [inhibitor, single point]"}
{"compound": "O=C(C1CCCO1)N1CCc2c(n(Cc3ccccc3)n(-c3ccccc3)c2=O)C1", "note": "(stereo unspecified)", "Potency": "active: 31.6 µM"}
{"compound": "CC(=O)N1CC2(CCCN2Cc2ccc(Cl)cc2)Cc2ccccc21", "note": "(stereo unspecified)", "Potency": "inconclusive: 70.8 µM [inhibitor, single point]"}
{"compound": "CC(Cc1cnccn1)NC(=O)c1ccc2nc(-c3ccc(F)cc3)cn2c1", "note": "(stereo unspecified)", "Potency": "inactive"}
{"compound": "Cc1ccc(C(=O)N2CCCC(C(=O)N3CCC(c4nc5ccncc5[nH]4)CC3)C2)cc1", "note": "(stereo unspecified)", "Potency": "inactive"}
{"compound": "O=C(Cc1ccc(Cl)cc1)N1CCCN(c2cc(-c3ccccc3)[nH]n2)CC1", "Potency": "inconclusive: 50.1 µM [inhibitor, partial curve, poor fit]"}
{"compound": "O=C(N1CCC(Cc2noc(-c3ccc(F)cc3)n2)C1)C1(c2ccccc2)CC1", "note": "(stereo unspecified)", "Potency": "inconclusive: 50.1 µM [inhibitor, partial curve, poor fit]"}
{"compound": "CN1CCOc2c(C(=O)NCCC(N)=O)cc(-c3ccccc3OC(F)(F)F)cc21", "Potency": "inconclusive: 112 µM [inhibitor, single point]"}
{"compound": "CC(=O)Nc1cccc(-c2ccnc(-c3nnc(C)n3CCN3CCOCC3)c2)c1", "Potency": "inconclusive: 112 µM [inhibitor, partial curve, poor fit]"}
{"compound": "COc1ccccc1Nc1ccnc(N2CCCC(C(=O)NC3CC3)C2)n1", "note": "(stereo unspecified)", "Potency": "inconclusive: 50.1 µM [inhibitor, partial curve, poor fit]"}
{"compound": "CN(C)CC1(COc2ccc(S(C)(=O)=O)cc2)C[C@@H](O)[C@@H](O)C1", "note": "(stereo partly specified)", "Potency": "inactive"}
{"compound": "COC1C(=O)N(CC2CC2)C12CCN(C(=O)c1cnccc1C)CC2", "note": "(stereo unspecified)", "Potency": "inconclusive: 56.2 µM [inhibitor, partial curve, poor fit]"}
{"compound": "COc1ccc(CN2CC3(CCN(C(=O)c4cc(-c5ccc(F)cc5)n[nH]4)CC3)C2=O)cc1", "Potency": "inconclusive: 44.7 µM [inhibitor, partial curve, poor fit]"}
{"compound": "Cc1ccc(-c2cnc([C@@H]3COCCN3C(C)C)[nH]2)cc1", "Potency": "inconclusive: 100 µM [inhibitor, partial curve, poor fit]"}
{"compound": "O=C(NC(c1ccccc1)c1ccccc1)c1cnc2c(c1)N([S+](=O)([O-])c1cccnc1)CCC2", "Potency": "inconclusive: 70.8 µM [inhibitor, single point]"}
{"compound": "COc1ccc(F)cc1-c1ccc(CN2CCC(NC(=O)c3ccccc3)C2)cc1", "note": "(stereo unspecified)", "Potency": "active: 35.5 µM"}
{"compound": "C=CCNC(=O)C1CC(c2ccc(F)cc2)=NO1", "note": "(stereo unspecified)", "Potency": "inconclusive: 70.8 µM [inhibitor, single point]"}
{"compound": "Cc1ccc(C(=O)N2CCC[C@H]2c2nc(-c3ccccc3)no2)cc1", "Potency": "inconclusive: 56.2 µM [inhibitor, partial curve, poor fit]"}
{"compound": "O=C(NCc1cccc(F)c1)c1ccc2c(c1)CC(=O)N2Cc1ccccc1", "Potency": "inconclusive: 70.8 µM [inhibitor, single point]"}
{"compound": "COc1cccc(C(=O)NC[C@@H]2CC[C@H]3C[C@@H]2C3(C)C)c1", "Potency": "inconclusive: 44.7 µM [inhibitor, partial curve, poor fit]"}
{"compound": "O=C(NC1CCCCC1)N1Cc2[nH]cnc2C[C@H]1c1nc(-c2ccc3c(c2)OCO3)no1", "Potency": "inconclusive: 79.4 µM [inhibitor, partial curve, poor fit]"}
